Source: publication PMC4336329 (PLoS ONE, 2015)
Screen size: about 310,000 compounds; about 2,200 (0.71%) showed an effect of 50% or more. The effect is printed as a negative number. Some of the results follow.

Target: human ether-à-go-go-related gene (hERG) potassium channel (human, UniProt Q12809)
Experiment: primary screen, population patch clamp on CHO cells stably expressing hERG

Chain of human ether-à-go-go-related gene (hERG) potassium channel (Q12809 whole entry, looked up): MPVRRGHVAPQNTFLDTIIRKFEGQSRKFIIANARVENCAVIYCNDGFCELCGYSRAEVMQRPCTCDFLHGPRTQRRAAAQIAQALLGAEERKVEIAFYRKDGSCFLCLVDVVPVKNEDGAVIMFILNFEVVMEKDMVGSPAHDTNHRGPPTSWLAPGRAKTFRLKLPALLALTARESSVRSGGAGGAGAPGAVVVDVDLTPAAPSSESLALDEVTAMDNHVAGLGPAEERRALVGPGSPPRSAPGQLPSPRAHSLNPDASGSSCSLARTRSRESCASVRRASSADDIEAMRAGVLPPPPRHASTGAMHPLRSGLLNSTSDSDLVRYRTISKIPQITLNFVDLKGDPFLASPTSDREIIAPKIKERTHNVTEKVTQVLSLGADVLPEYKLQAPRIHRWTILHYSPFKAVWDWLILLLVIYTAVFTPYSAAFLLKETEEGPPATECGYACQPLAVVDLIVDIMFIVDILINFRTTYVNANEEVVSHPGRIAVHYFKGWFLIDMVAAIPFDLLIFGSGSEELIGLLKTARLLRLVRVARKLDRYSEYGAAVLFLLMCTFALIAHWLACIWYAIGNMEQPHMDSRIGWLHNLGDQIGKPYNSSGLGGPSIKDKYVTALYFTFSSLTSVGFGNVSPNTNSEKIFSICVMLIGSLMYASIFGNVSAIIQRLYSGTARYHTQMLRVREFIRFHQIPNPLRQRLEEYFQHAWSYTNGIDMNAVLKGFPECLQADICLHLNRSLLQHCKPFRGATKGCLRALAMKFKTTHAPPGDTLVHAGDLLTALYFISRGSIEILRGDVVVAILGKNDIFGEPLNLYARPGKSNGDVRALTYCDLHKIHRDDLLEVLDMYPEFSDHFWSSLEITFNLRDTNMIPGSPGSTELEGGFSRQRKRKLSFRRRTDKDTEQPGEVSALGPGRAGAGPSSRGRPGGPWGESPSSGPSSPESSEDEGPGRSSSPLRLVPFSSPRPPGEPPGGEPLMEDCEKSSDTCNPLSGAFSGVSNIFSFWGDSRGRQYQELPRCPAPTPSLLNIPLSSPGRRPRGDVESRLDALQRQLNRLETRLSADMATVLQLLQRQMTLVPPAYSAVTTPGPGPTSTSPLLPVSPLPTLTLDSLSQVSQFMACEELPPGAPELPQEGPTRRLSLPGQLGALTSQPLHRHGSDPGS

First: COc1cccc(CN2CCNCC2)c1OC
Second: COc1cccc(C(=O)Oc2cc(C)[nH]c(=O)c2[N+](=O)[O-])c1OC
The “hERG current change (%, negative = inhibition) at 1uM” value of the first is higher: 12.2% for the first, 11.9% for the second.

Going from `O=C(CN1CCN(Cc2ccccc2)CC1)Nc1ccc(N2CCOCC2)cc1` to `COc1ccc(Br)cc1C(=O)Nc1ccc(N2CCCC2)cc1`, the “hERG current change (%, negative = inhibition) at 1uM” value rises from 8.88% to 19.1%.

First: COc1cccc(C(=O)NCCS(=O)(=O)N2CCc3ccccc3C2)c1
Second: CS(=O)(=O)N(CC(=O)N1CCc2ccccc2C1)c1ccccc1F
The “hERG current change (%, negative = inhibition) at 1uM” value of the first is lower: -1.2% for the first, 7.9% for the second.

Going from `C=CCSc1nc(N)c2c3c(sc2n1)CN(C)CC3` to `CCN1CCN(C(=O)c2cc3cc4cc(OC)ccc4nc3s2)CC1`, the “hERG current change (%, negative = inhibition) at 1uM” value rises from -4.65% to -4.27%.

First: COc1cccc2c(=O)c3ccccc3oc12
Second: C/[N+]([O-])=C\c1coc2ccccc2c1=O
The “hERG current change (%, negative = inhibition) at 1uM” value of the first is higher: 13.5% for the first, 4.01% for the second.

First: CCOc1ccc(Oc2ccccc2NC(=O)CN2C(=O)NC3(CCCC3)C2=O)cc1
Second: CCOc1ccc(CCNC(=O)C2=C(C)C(=O)OC23CCCCC3)cc1OCC
The “hERG current change (%, negative = inhibition) at 1uM” value of the first is lower: 4.63% for the first, 16.9% for the second.

Going from `CC12CCC(C(=O)Nc3ccccc3-n3cccc3)(CC1=O)C2(C)C` (centres unmarked) to `COc1ccc2nc(NC(=O)C3CC(=O)N(c4ccccc4)C3)sc2c1` (centres unmarked), the “hERG current change (%, negative = inhibition) at 1uM” value falls from 5.32% to 4.67%.

First: COc1ccc(N2CCN(CC(O)COc3cc(C)cc(C)c3)CC2)cc1.Cl (centres unmarked)
Second: COc1ccc(OCC(O)Cn2c(N)nc3c2c(=O)[nH]c(=O)n3C)cc1 (centres unmarked)
The “hERG current change (%, negative = inhibition) at 1uM” value of the first is lower: -17.5% for the first, 9.31% for the second.

Going from `Cc1cccc(OCC(=O)Nc2ccc(S(=O)(=O)Nc3ccccn3)cc2)c1` to `CN(Cc1ccccc1)S(=O)(=O)c1ccc(OCC(=O)NCc2cccnc2)cc1`, the “hERG current change (%, negative = inhibition) at 1uM” value falls from 17.3% to 14.9%.

Compared with `CCn1c(=NC(=O)CSC(C)=O)sc2cc(F)ccc21`, `CC(C)[C@H](NC(=O)c1ccc(F)cc1)C(=O)N(C)Cc1cccs1` is higher in “hERG current change (%, negative = inhibition) at 1uM” value: -3.73% for the first, 3.19% for the second.

Compared with `CC(C)C[C@H]1CN=C(Nc2ccccc2)N1CCCC1CCCC1`, `O=C(CSc1nnc(-c2ccccc2)o1)NC1CC1` is higher in “hERG current change (%, negative = inhibition) at 1uM” value: -24.5% for the first, 13.6% for the second.

First: NC(=O)CSc1oc(-c2cccs2)nc1S(=O)(=O)c1ccccc1
Second: O=S(=O)(c1cccc(-c2nc3ccccc3s2)c1)N1CCCC1
The “hERG current change (%, negative = inhibition) at 1uM” value of the first is lower: 1.53% for the first, 2.25% for the second.

First: c1ccc(-n2cnc3cc(NCc4ccco4)ccc32)cc1
Second: Cl.OCCCNCc1ccc(-c2ccccc2)cc1
The “hERG current change (%, negative = inhibition) at 1uM” value of the first is lower: -3.38% for the first, 6.55% for the second.

First: CCCc1ccc2oc(C(=O)N(C)Cc3cnccn3)c(C)c2c1
Second: CC(C)Cn1c(O)c2ccc(C(=O)N=NC(=O)c3cccnc3)cc2c1O
The “hERG current change (%, negative = inhibition) at 1uM” value of the first is lower: 1.37% for the first, 13.1% for the second.

Compared with `C=C(C)C1CC=C(C)/C(=N/NC(=O)c2ccccc2[N+](=O)[O-])C1` (centres unmarked), `Cc1ccc(S(=O)(=O)N2CCC(C(=O)Nc3ccc(C(C)C)cc3)CC2)cc1` is lower in “hERG current change (%, negative = inhibition) at 1uM” value: 12.4% for the first, 0.0163% for the second.

First: COC(=O)C1C(=O)c2c(n[nH]c2C)CC1(C)C (centres unmarked)
Second: CCCC(=O)c1c(NCCO)cc(C)oc1=O
The “hERG current change (%, negative = inhibition) at 1uM” value of the first is higher: 20.9% for the first, 6.13% for the second.

Compared with `CC1CC(C)(C)NC(=S)N1CCCC(=O)N1CCN(c2ccc(F)cc2)CC1` (centres unmarked), `O=C(NCC(=O)N1CCN(c2ccccc2)CC1)c1cccs1` is higher in “hERG current change (%, negative = inhibition) at 1uM” value: -4.06% for the first, 1.14% for the second.

Going from `CCC(=O)N1CCc2cc(S(=O)(=O)NCCN3CCCCC3CC)ccc21` (centres unmarked) to `CCC1CCCCN1CCCNC(=O)c1ccc(CS(=O)(=O)Cc2ccc(Cl)cc2)o1` (centres unmarked), the “hERG current change (%, negative = inhibition) at 1uM” value rises from -10.7% to 12%.

First: COc1cc(C(C)=O)ccc1OC(=O)C(C)N1C(=O)c2ccccc2C1=O (centres unmarked)
Second: COc1ccc(NC(C)=O)cc1CNC(=O)COc1c(C)c(C)cc(C)c1C
The “hERG current change (%, negative = inhibition) at 1uM” value of the first is lower: 10.7% for the first, 13.6% for the second.

First: COCCN(C(=O)/C=C/c1cccc([N+](=O)[O-])c1)c1c(N)n(Cc2ccccc2)c(=O)[nH]c1=O
Second: COc1cc2c(cc1OC)C(c1c(O)n(CCc3ccccc3)c(=S)[nH]c1=O)NCC2 (centres unmarked)
The “hERG current change (%, negative = inhibition) at 1uM” value of the first is lower: 5.6% for the first, 13% for the second.

Compared with `Cc1ccc(-c2nnc(CN3CCN(C)CC3)o2)cc1`, `CN1CCN(C(=S)c2ccc(-c3cccc(Cl)c3Cl)o2)CC1` is higher in “hERG current change (%, negative = inhibition) at 1uM” value: 7.19% for the first, 7.56% for the second.

First: O=C(Nc1cccc(S(=O)(=O)N2CCOCC2)c1)c1cnccn1
Second: O=C(N/C(=C/c1cn(-c2ccccc2)nc1-c1ccccc1)C(=O)N1CCOCC1)c1ccc(Cl)cc1Cl
The “hERG current change (%, negative = inhibition) at 1uM” value of the first is lower: -2.2% for the first, 24.2% for the second.

Going from `O=C(COc1ccccc1)NCC(=O)N/N=C/c1cc(Br)ccc1OCc1ccccc1` to `COc1ccccc1C(=O)NC(=S)Nc1ccc(Cc2ccncc2)cc1`, the “hERG current change (%, negative = inhibition) at 1uM” value rises from 10.1% to 14.5%.

Compared with `O=C1NC(=O)N(CCNc2ncc(C(F)(F)F)cc2Cl)C(=O)C1Cc1ccc(Cl)cc1` (centres unmarked), `O=S(=O)(Nc1cc(F)ccc1F)c1cccc2nsnc12` is higher in “hERG current change (%, negative = inhibition) at 1uM” value: 14.1% for the first, 14.5% for the second.

Compared with `COCCC(=O)N1CCC(Oc2ccc(C(=O)N3CCCC(OC)C3)cc2)CC1` (centres unmarked), `CC1CN(C(=O)N2CCOCC2)CCN1C(=O)N1CCOCC1` (centres unmarked) is higher in “hERG current change (%, negative = inhibition) at 1uM” value: 5.47% for the first, 9.95% for the second.

Compared with `Cc1nn(Cc2c(F)c(F)c(F)c(F)c2F)c(C)c1NC(=O)c1nn(C)c(C)c1Br`, `Cc1ccc(C)c(NC(=O)Cn2nc([N+](=O)[O-])c(Br)c2C)c1` is higher in “hERG current change (%, negative = inhibition) at 1uM” value: -6.03% for the first, 15.8% for the second.

Going from `COC(=O)c1cc(NC(=O)c2cccc(Cl)c2)c(=O)oc1/C=C/Nc1cc(C)cc(C)c1` to `CCOC(=O)c1sc2nc(C)nc(Nc3ccccc3)c2c1C.Cl`, the “hERG current change (%, negative = inhibition) at 1uM” value falls from 13.2% to 11.3%.

First: Cc1ccc(-c2nnc(SCC(=O)NC3CCCc4ccccc43)n2N)cc1 (centres unmarked)
Second: Cc1ccc(S(=O)(=O)N(C)Cc2ccc(C(=O)NN=C(CC(C)C)CC(C)C)cc2)cc1
The “hERG current change (%, negative = inhibition) at 1uM” value of the first is lower: 0.864% for the first, 7.58% for the second.
